{
  "source": "PubChem BioAssay AID588342",
  "about": "(National Center for Advancing Translational Sciences (NCATS), 2011)",
  "note": "Several values for one entry are separate records, joined by “and”; a condition that tells them apart may be missing. Equal values may be shown once. In all, about 360,000 compounds went through this assay and about 25,000 (6.9%) were called active. Inconclusive results, whose numbers are uncertain, are shown with a selection of clear calls. Calls follow the shape of the dose curve; as a rule, active = well fitted inhibition curve with a large enough effect; inconclusive = small, poorly fitted or top-dose-only effect; inactive = flat fitted curve, though single readings scatter. Where the call is inconclusive, the potency comes from a doubtful curve fit. Potency is read from the fitted curve at half-maximal effect; tags tell the direction and shape of the fitted curve.",
  "data": [
    {"target": "Luciferin 4-monooxygenase (Photinus pyralis) (UniProt P08659)", "sequence (P08659 whole entry, looked up)": "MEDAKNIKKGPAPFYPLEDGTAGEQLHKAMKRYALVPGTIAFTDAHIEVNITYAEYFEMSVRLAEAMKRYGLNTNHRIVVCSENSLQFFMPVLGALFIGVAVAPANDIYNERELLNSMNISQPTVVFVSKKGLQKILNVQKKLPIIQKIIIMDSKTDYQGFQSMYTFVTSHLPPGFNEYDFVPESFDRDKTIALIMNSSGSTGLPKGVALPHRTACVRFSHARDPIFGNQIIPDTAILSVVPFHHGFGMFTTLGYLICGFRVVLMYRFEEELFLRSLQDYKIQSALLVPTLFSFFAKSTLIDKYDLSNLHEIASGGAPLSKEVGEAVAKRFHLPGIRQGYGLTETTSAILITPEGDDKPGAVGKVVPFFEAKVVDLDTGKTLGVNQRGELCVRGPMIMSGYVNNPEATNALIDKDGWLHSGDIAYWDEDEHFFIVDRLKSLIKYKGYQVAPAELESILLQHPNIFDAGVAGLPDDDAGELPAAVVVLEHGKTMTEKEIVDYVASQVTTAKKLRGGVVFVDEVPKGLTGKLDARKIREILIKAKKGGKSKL", "test": "qHTS profiling assay for firefly luciferase inhibitor/activator using purifed enzyme and Km concentrations of substrates (counterscreen for miR-21 project); also: nearly all actives have a fitted effect of over 55% in size;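 as to activity change, negative = inhibition: plate controls were vehicle for no effect and reference inhibitor for full effect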", "settings": "purified FLuc, luminescence inhibition; series mostly up to 57.5 µM; activity change, negative = inhibition: at the top concentration", "in_short": "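Purified P. pyralis luciferase, 10 nM final, with Km-level 10 uM D-luciferin and 10 uM ATP in 50 mM Tris acetate pH 7.5, 10 mM Mg acetate, 0.01% Tween-20, 0.05% BSA; 6-point qHTS titration about 60 µM downward; luminescence read.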", "values": [
      {"smiles": "COc1cc(C(=O)Nc2ccc3oc(-c4ccc(C)c(Br)c4)nc3c2)cc(OC)c1OC", "activity change, negative = inhibition": "inactive: 8.64%"},
      {"smiles": "O=C(Cc1cccc(C(F)(F)F)c1)NCc1ccc(Cl)cc1Cl", "Potency": "inconclusive: 16.9 µM [inhibitor, partial curve]"},
      {"smiles": "COc1ccc(F)cc1S(=O)(=O)NCCc1sc2nc(-c3ccc(F)cc3)nn2c1C", "activity change, negative = inhibition": "inactive: -10.6%"},
      {"smiles": "COc1ccc(C(=O)O)cc1NC(=S)NC(=O)c1ccc(-c2ccc(Cl)cc2)o1", "Potency": "active: 13.5 µM"},
      {"smiles": "O=C(CSc1nnc(NC(=O)c2c(F)cccc2F)s1)Nc1ccccc1F", "Potency": "inconclusive: 26.9 µM [inhibitor, single point]"},
      {"smiles": "N/C(=N\\OC(=O)CC1CCCCC1)c1ccc([N+](=O)[O-])cc1", "Potency": "inconclusive: 21.3 µM [inhibitor, partial curve, poor fit]"},
      {"smiles": "C=CCN1C(=O)/C(=C/c2ccc(O)c(OC)c2)S/C1=N/c1nccs1", "activity change, negative = inhibition": "inactive: -27.8%"},
      {"smiles": "CC(Sc1nnc(COc2ccc3ccccc3c2)n1C)C(=O)O", "note": "(stereo not drawn)", "Potency": "inconclusive: 37.9 µM [inhibitor, partial curve, poor fit]"},
      {"smiles": "COc1ccc(C(CNC(=O)/C=C/c2c(Cl)nc3ccccn23)N(C)C)cc1", "note": "(stereo not drawn)", "activity change, negative = inhibition": "inactive: -3.79%"},
      {"smiles": "C#CCCc1ccccc1/C=[N+](/C)[O-]", "Potency": "inconclusive: 25.1 µM [inhibitor, single point]"},
      {"smiles": "Cc1ccc(-n2c(C)cc(/C=N/NC(N)=S)c2C)cc1", "Potency": "inconclusive: 13.5 µM [inhibitor, partial curve]"},
      {"smiles": "CCOC(=O)C1=C(CS(=O)(=O)c2ccc(F)cc2)NC(=O)NC1c1ccc(O)c(O)c1", "note": "(stereo not drawn)", "Potency": "inconclusive: 0.301 µM [inhibitor, partial curve, poor fit]"},
      {"smiles": "COc1cc2c(cc1OC)CN(Cc1cc(=O)oc3cc(C)c(C)cc13)CC2", "Potency": "inconclusive: 21.3 µM [inhibitor, partial curve, poor fit]"},
      {"smiles": "C=CCSc1nnc(-c2cc3c(s2)-c2ccccc2CC3)o1", "Potency": "active: 12 µM"},
      {"smiles": "CC(C)(C)c1ccc(C(=O)c2c[nH]c(C(=O)NCc3cccnc3)c2)cc1", "Potency": "active: 7.57 µM"},
      {"smiles": "Cc1c(NC(C)c2ccccc2O)c(=O)n(-c2ccccc2)n1C", "note": "(stereo not drawn)", "activity change, negative = inhibition": "inactive: 2.48%"},
      {"smiles": "O=C(Nc1nc2c(s1)CN(Cc1ccccc1)CC2)C1CCC1", "Potency": "active: 23.9 µM"},
      {"smiles": "Cc1ccsc1CN(C(=O)c1oc2cc(Br)ccc2c1C)C1CCS(=O)(=O)C1", "note": "(stereo not drawn)", "activity change, negative = inhibition": "inactive: -9.41%"},
      {"smiles": "COc1nc(Cl)cn(-c2ccc(C)cc2)c1=O", "activity change, negative = inhibition": "inactive: -2.8%"},
      {"smiles": "CC(C)c1ccc(OCC(=O)NCc2ccccc2)cc1", "Potency": "inconclusive: 37.9 µM [inhibitor, partial curve, poor fit]"},
      {"smiles": "O=C(Cc1nnc(NC(=O)Nc2ccc(F)cc2)s1)Nc1ccccc1", "Potency": "inconclusive: 30.1 µM [inhibitor, single point]"},
      {"smiles": "COC(=O)c1nn(-c2ccccc2)c(Sc2ccc(C)cc2)c1/C=N/O", "activity change, negative = inhibition": "inactive: 9.36%"},
      {"smiles": "COc1cccc(/C=C/C(=O)NCCc2ccc3c(c2)OCCO3)c1", "Potency": "inconclusive: 21.3 µM [inhibitor, partial curve, poor fit]"},
      {"smiles": "CC(C)n1cnc(S(=O)(=O)N2CCCC(C(=O)NCc3ccccc3Cl)C2)c1", "note": "(stereo not drawn)", "activity change, negative = inhibition": "inactive: -4.04%"},
      {"smiles": "CC(C)(C)c1csc(NC(=O)c2ccncc2)n1", "Potency": "inconclusive: 23.9 µM [inhibitor, single point]"},
      {"smiles": "Cc1n[nH]c(=O)c2c(NC(=O)COC(=O)/C=C/c3cccc(C(F)(F)F)c3)oc(C)c12", "activity change, negative = inhibition": "inactive: 0.744%"},
      {"smiles": "CN(CC(=O)Nc1ccccc1Br)C(=O)c1ccc(COc2ccccc2)cc1", "Potency": "inconclusive: 37.9 µM [inhibitor, partial curve, poor fit]"},
      {"smiles": "Cc1[nH]n(-c2ccccc2)c(=O)c1N=O", "Potency": "inconclusive: 23.9 µM [inhibitor, partial curve, poor fit]"},
      {"smiles": "O=C(/C=C/c1ccc(-c2ccccc2[N+](=O)[O-])o1)c1ccccc1", "Potency": "active: 23.9 µM"},
      {"smiles": "Cc1ccc2oc(C(=O)N(C)Cc3cnccn3)c(C)c2c1", "Potency": "inconclusive: 37.9 µM [inhibitor, single point]"},
      {"smiles": "Nc1nnc(CC(=O)N/N=C/c2ccc(-c3ccccc3)o2)s1", "Potency": "inconclusive: 21.3 µM [inhibitor, single point]"},
      {"smiles": "CC1CCc2nc3ncn(Cc4ccccc4F)c(=O)c3cc2C1", "note": "(stereo not drawn)", "Potency": "inconclusive: 16.9 µM [inhibitor, partial curve, poor fit]"},
      {"smiles": "COc1ccc(S(=O)(=O)NC2CCCC2)c(Cl)c1Cl", "activity change, negative = inhibition": "inactive: 4.29%"},
      {"smiles": "COc1ccc(NC(=O)CN(c2ccc(C)cc2)S(=O)(=O)c2cccc3nonc23)cc1OC", "activity change, negative = inhibition": "inactive: 3%"},
      {"smiles": "CC(C)Nc1ncnc2c1cnn2-c1ccc(Cl)cc1", "Potency": "active: 0.536 µM"},
      {"smiles": "COc1ccc(N2CC(NC(=O)c3ccc4c(c3)OCO4)CC2=O)cc1", "note": "(stereo not drawn)", "activity change, negative = inhibition": "inactive: -2.38%"},
      {"smiles": "CCOc1[nH]n(-c2ccccc2)c(=O)c1C=NCC(=O)OC", "activity change, negative = inhibition": "inactive: -4.14%"},
      {"smiles": "CCOC(=O)C1=C(C)NC(=O)NC1c1ccc(N2CCC(c3ccccc3)=N2)cc1", "note": "(stereo not drawn)", "Potency": "inconclusive: 15.1 µM [inhibitor, partial curve]"},
      {"smiles": "O=S(=O)(c1ccc(-c2csc(-c3cccnc3)n2)cc1)N1CCCC1", "Potency": "inconclusive: 23.9 µM [inhibitor, partial curve, poor fit]"},
      {"smiles": "COc1cccc(C(=O)NC23CC4CC(CC(C4)C2)C3)c1", "Potency": "active: 16.9 µM"},
      {"smiles": "CCN(CC)c1ccc(/C=C2\\SC(N)=NC2=O)cc1", "Potency": "inconclusive: 7.57 µM [inhibitor, partial curve]"},
      {"smiles": "Cc1ccc(-n2c(SCC(=O)O)nc3sc4c(c3c2=O)CCCC4)cc1", "Potency": "inconclusive: 13.5 µM [inhibitor, partial curve] and inconclusive: 23.9 µM [inhibitor, partial curve, poor fit]"},
      {"smiles": "CCOC(=O)C1(Cc2ccc(Cl)cc2)CCN(C(=O)C2=NNC(=O)CC2)CC1", "Potency": "inconclusive: 4.26 µM [inhibitor, partial curve, poor fit]"},
      {"smiles": "Clc1ccc(CSc2ncn[nH]2)cc1", "activity change, negative = inhibition": "inactive: -14%"},
      {"smiles": "Cc1cccc(NC(=O)c2cnc3ccccn3c2=O)c1", "Potency": "active: 0.675 µM"},
      {"smiles": "O=C(NNC(=S)Nc1ccccc1)c1ccc2ncccc2c1", "Potency": "inconclusive: 23.9 µM [inhibitor, partial curve]"},
      {"smiles": "COc1ccc(NC(=O)C(=O)NCC(c2ccco2)N2CCc3ccccc3C2)cc1OC", "note": "(stereo not drawn)", "activity change, negative = inhibition": "inactive: 3.7%"},
      {"smiles": "Cc1ccc(CSc2nnc(-c3ccccn3)n2C)cc1", "Potency": "inconclusive: 26.9 µM [inhibitor, partial curve, poor fit]"},
      {"smiles": "CC1CCCCC1NC(=O)COc1ccc(-n2cnnn2)cc1", "note": "(stereo not drawn)", "activity change, negative = inhibition": "inactive: -3.4%"},
      {"smiles": "COc1cccc(NC(=O)C2CCCN(S(=O)(=O)c3ccc4[nH]c(=O)ccc4c3)C2)c1", "note": "(stereo not drawn)", "activity change, negative = inhibition": "inactive: 0.743%"},
      {"smiles": "COC(=O)c1cnc(SCc2ccc(Cl)cc2)n1C", "Potency": "inconclusive: 37.9 µM [inhibitor, partial curve, poor fit]"},
      {"smiles": "Cc1occc1C(=O)N/N=C/c1cnn(C)c1C", "Potency": "inconclusive: 19 µM [inhibitor, partial curve]"},
      {"smiles": "Cc1c(NC(=O)c2cccc(NC(=O)c3ccco3)c2)cccc1C(=O)O", "Potency": "active: 19 µM"},
      {"smiles": "CCCCC(CC)CNC(=O)CN1C(=O)NC2(CCc3ccccc32)C1=O", "note": "(stereo not drawn)", "activity change, negative = inhibition": "inactive: -0.703%"},
      {"smiles": "NC(=O)c1cc(-c2ccccc2)sc1NC(=O)CN1CCCCC1", "Potency": "active: 19 µM"},
      {"smiles": "CCOC(=O)c1ccc(NC(=O)N2CCOCC2)cc1", "Potency": "inconclusive: 21.3 µM [inhibitor, single point]"},
      {"smiles": "CC(Oc1ccc(Cl)cc1Cl)C(=O)Nc1ncccn1", "note": "(stereo not drawn)", "Potency": "inconclusive: 21.3 µM [inhibitor, partial curve, poor fit]"},
      {"smiles": "CSc1ccc(CNC(=O)c2ccc(NC(=O)c3nsc4ccccc34)cc2)cc1", "Potency": "active: 6.01 µM"},
      {"smiles": "COC(=O)Cn1c(=O)c2c(nc3n2CCN3c2ccc(F)cc2)n(C)c1=O", "Potency": "inconclusive: 13.5 µM [inhibitor, partial curve, poor fit]"},
      {"smiles": "CN(C(=O)CN1C(=O)/C(=C/c2ccccc2F)SC1=S)C1CCS(=O)(=O)C1", "note": "(stereo not drawn)", "Potency": "inconclusive: 37.9 µM [inhibitor, partial curve, poor fit]"},
      {"smiles": "O=C(Cc1ccc(Br)cc1)Nc1ncc([N+](=O)[O-])s1", "Potency": "inconclusive: 30.1 µM [inhibitor, single point]"},
      {"smiles": "COc1ccc(C(=O)Nn2c(CCC(=O)O)ccc2-c2ccc(C)cc2)cc1OC", "activity change, negative = inhibition": "inactive: 0.186%"},
      {"smiles": "Cc1c(NC(=O)C(C)OC(=O)c2cccnc2Cl)c(=O)n(-c2ccccc2)n1C", "note": "(stereo not drawn)", "activity change, negative = inhibition": "inactive: -0.753%"},
      {"smiles": "CCOc1ccccc1C(=O)Nc1nc2c(s1)CC(C)CC2", "note": "(stereo not drawn)", "Potency": "active: 2.69 µM"},
      {"smiles": "CCN1CCN(C(=O)c2cc3cc4cc(OC)ccc4nc3s2)CC1", "Potency": "inconclusive: 26.9 µM [inhibitor, partial curve, poor fit]"},
      {"smiles": "Cc1ccc(CNS(=O)(=O)c2ccc(-c3cc(C(F)(F)F)on3)s2)cc1", "activity change, negative = inhibition": "inactive: 7.56%"},
      {"smiles": "COc1cc(/C=C(\\C#N)C(=O)Nc2cccc(C(=O)O)c2)ccc1OCc1ccc(Cl)cc1", "Potency": "inconclusive: 16.9 µM [inhibitor, partial curve, poor fit]"},
      {"smiles": "O=C(c1[nH]c2ccccc2c1Sc1ccc(Cl)cc1)N1CCCCC1", "activity change, negative = inhibition": "inactive: -5.84%"},
      {"smiles": "Cc1ccc(OCC(=O)OCc2cc(=O)n3nc(C4CCCCC4)sc3n2)cc1C", "Potency": "inconclusive: 30.1 µM [inhibitor, partial curve, poor fit]"},
      {"smiles": "Cc1ccc(OCC(=O)Nc2nnn(C)n2)c(C)c1", "Potency": "inconclusive: 30.1 µM [inhibitor, partial curve, poor fit]"},
      {"smiles": "COc1ccc(C(=O)Nc2cc(C(C)C)c(O)c(S(=O)(=O)c3ccc(Cl)cc3)c2C)cc1", "Potency": "inconclusive: 6.01 µM [inhibitor, full curve]"},
      {"smiles": "CCn1nc(C)c2c(-c3ccccc3)cc(=O)n(C(C)C(=O)NCc3cccc(OC)c3)c21", "note": "(stereo not drawn)", "activity change, negative = inhibition": "inactive: -0.687%"},
      {"smiles": "CCC(CC)NC(=O)/C=C/c1ccccc1Cl", "Potency": "inconclusive: 9.53 µM [inhibitor, single point]"}
    ]}
  ]
}
